# Test results: publication PMC4336329 (PLoS ONE, 2015)
# Out of some 310,000 compounds screened, about 14,000 (4.5%) showed an effect of 50% or more. The effect is printed as a negative number. This is one part of the list.
# Biological target: human ether-à-go-go-related gene (hERG) potassium channel (human, UniProt Q12809)
# Assay: primary screen, population patch clamp on CHO cells stably expressing hERG
# 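Further: peak tail current of the secondary pulse compared with the same well before compound.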
# human ether-à-go-go-related gene (hERG) potassium channel, sequence (Q12809 whole entry, looked up): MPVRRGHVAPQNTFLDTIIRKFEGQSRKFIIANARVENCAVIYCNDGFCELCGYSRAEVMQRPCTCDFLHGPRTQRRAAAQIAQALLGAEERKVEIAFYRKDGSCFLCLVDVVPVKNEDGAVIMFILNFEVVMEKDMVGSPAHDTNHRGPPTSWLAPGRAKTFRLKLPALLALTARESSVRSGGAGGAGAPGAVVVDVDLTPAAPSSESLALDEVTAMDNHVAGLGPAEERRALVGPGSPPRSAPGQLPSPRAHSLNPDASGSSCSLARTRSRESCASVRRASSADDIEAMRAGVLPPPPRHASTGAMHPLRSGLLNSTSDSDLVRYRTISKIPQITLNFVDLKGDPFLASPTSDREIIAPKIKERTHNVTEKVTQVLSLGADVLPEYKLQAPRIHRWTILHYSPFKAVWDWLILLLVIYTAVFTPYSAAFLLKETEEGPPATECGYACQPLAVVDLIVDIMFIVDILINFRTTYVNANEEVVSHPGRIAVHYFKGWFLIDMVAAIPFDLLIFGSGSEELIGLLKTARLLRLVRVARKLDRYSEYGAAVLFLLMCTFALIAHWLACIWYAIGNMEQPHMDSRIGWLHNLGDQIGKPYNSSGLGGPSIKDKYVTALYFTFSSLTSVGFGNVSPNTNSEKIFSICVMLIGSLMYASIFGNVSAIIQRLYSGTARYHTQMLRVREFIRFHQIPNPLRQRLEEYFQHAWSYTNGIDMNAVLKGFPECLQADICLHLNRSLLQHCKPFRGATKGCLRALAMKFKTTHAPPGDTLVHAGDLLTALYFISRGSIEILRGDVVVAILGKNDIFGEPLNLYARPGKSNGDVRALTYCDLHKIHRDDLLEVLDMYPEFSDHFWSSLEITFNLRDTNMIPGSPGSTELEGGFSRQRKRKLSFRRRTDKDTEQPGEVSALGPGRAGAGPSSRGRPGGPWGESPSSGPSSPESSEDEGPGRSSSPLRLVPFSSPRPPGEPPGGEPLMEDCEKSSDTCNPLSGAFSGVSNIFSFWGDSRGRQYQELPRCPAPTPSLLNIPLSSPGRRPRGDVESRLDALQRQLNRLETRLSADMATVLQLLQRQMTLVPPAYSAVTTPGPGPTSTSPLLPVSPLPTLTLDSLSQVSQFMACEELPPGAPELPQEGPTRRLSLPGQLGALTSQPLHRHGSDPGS
row,SMILES,"hERG current change (%, negative = inhibition) at 10uM"
1,Cc1nnc(SCC(=O)Nc2sc3c(c2C#N)CCCCC3)n1N,-2.18%
2,O=C(NC12CC3CC(CC(C3)C1)C2)c1cccc(OC(F)F)c1,-55.2%
3,COCc1cc(C)nc(SCC(=O)Nc2ccc(N3CCOCC3)cc2)c1C#N,3.04%
4,COc1ccc(C(=O)NC2CC3CCCC(C2)N3CC(C)C)cc1 (stereo not shown),-34.7%
5,CCOC(=O)COc1ccc(S(=O)(=O)N2CCc3ccccc3C2)cc1,-3.43%
6,CC1Cc2ccccc2N1C(=O)COC(=O)c1ccc(Br)o1 (stereo not shown),8.05%
7,Cc1ccc2[nH]c(=O)c(COC(=O)c3cccs3)cc2c1,-1.59%
8,O=C1CSC2(C(=O)N3CCCc4cccc2c43)N1c1cccc(C(F)(F)F)c1 (stereo not shown),-23.6%
9,CCCn1nc(C(=O)NCCc2ccc(S(N)(=O)=O)cc2)c2ccccc2c1=O,-15.8%
10,CC1CCCCC1NC(=O)CSc1nnc(-c2ccncc2)n1CCCN(C)C.O=C(O)C(=O)O (stereo not shown),3.09%
11,CC(C)CNC(=O)c1ccc(NC(=O)c2cccs2)cc1,-2.04%
12,COc1ccc(C)cc1N(CC(=O)Nc1ccc2c(c1)OCCO2)S(C)(=O)=O,11.6%
13,COCCNC(=O)Cn1nc(-c2ccc(C)cc2)c2ccccc2c1=O,3.46%
14,CCOc1ccccc1N(CC(=O)Nc1ccccc1C(=O)OC)S(C)(=O)=O,12%
15,COc1cccc(CNCC(=O)N2C(C)CCCC2C)c1.O=C(O)C(=O)O (stereo not shown),-3.1%
16,Cc1ccc(C(=O)N/C(=C\c2cn(C)c3ccccc23)C(=O)N2CCOCC2)cc1,-6.6%
17,Cc1ccc(C(=O)NC2CCN(S(=O)(=O)c3ccc(F)cc3)CC2)cc1,11.6%
18,Cc1ccc(N(CC(=O)NC(C)C)C(=O)CCC(=O)Nc2ccccn2)cc1,21%
19,COc1ccc(NC(=O)NCCCN2CCC(Cc3ccccc3)CC2)cc1,-77.5%
20,Cc1ccc(Oc2cc(C)nc(-c3ccccc3O)n2)cc1,0.258%
21,CC(O)CC(C)O (stereo not shown),24.9%
22,CC1(C)Oc2ccc3ccc(=O)oc3c2/C(=C/NCCN/C=C2\C(=O)C(C)(C)Oc3ccc4ccc(=O)oc4c32)C1=O,-7.38%
23,CC(=O)c1ccc(N2CCN(S(=O)(=O)c3cc4c(cc3C)NC(=O)CO4)CC2)cc1,8.4%
24,Cc1noc(C)c1C(=O)OC(C)C(=O)N(C)c1ccccc1 (stereo not shown),-4.55%
25,O=C(CS(=O)(=O)c1ccccc1)c1cc2cc(F)ccc2oc1=O,0.672%
26,COC(=O)c1c(NC(C)=O)sc(C(=O)Nc2ccccc2F)c1C,24.5%
27,CCOP(=O)(c1ccccc1)c1nc(-c2ccc(F)cc2)oc1N1CCCCC1 (stereo not shown),-56.6%
28,COc1ccc(NC(=S)NC2CC3CCC(C2)N3Cc2ccco2)cc1 (stereo not shown),-30.1%

row,SMILES,"hERG current change (%, negative = inhibition) at 10uM"
1,N#Cc1c(-c2ccccc2)ccnc1Oc1ccccc1,0.00568%
2,CC(C)N(C(=O)Cc1ccccc1[N+](=O)[O-])C(C)C,13.5%
3,O=C(Cn1c(=O)oc2ccccc21)Nc1ccc(S(=O)(=O)N2CCCCC2)cc1,-6.33%
4,CC1(C)Cc2ccccc2C(NN=C2CCCC2)=N1,-21.2%
5,Cc1ccc(NC(=O)c2sc3ncn(CC(=O)N4CCOCC4)c(=O)c3c2C)c(Br)c1,3.31%
6,Cc1cnc(NC(=O)c2ccccn2)s1,12.4%
7,Cc1ccc(N2C(=O)NC(=O)C3(Cc4ccccc4N4CCN(c5ccccc5)CC43)C2=O)cc1 (stereo not shown),-12.1%
8,COc1ccc(C(=O)NC2CCCc3ccccc32)cc1S(=O)(=O)N1CCOCC1 (stereo not shown),2.93%
9,COc1ccc(C2C(C(=O)c3cccs3)=C(O)C(=O)N2Cc2cccnc2)cc1OC (stereo not shown),5.03%
10,CC(C)CCNC(=O)c1ccc2c(c1)N(Cc1ccccc1)C(=O)CS2=O (stereo not shown),-6.95%
11,CC(=O)N1CCc2cc(S(=O)(=O)CCC(=O)Nc3c(C)n(C)n(-c4ccccc4)c3=O)ccc21,-4.16%
12,COC(=O)c1cc(NC(=O)/C=C/c2ccccc2)ccc1O,-0.657%
13,CCC(CO)NCC(O)COCc1ccc2c(c1)OCO2 (stereo not shown),10.1%
14,Cc1ccc(C(c2nnnn2C2CCCC2)N2c3ccccc3CC2C)cc1.Cl (stereo not shown),18.5%
15,CCN(CC(=O)NCc1cccs1)S(=O)(=O)c1cccc(C(C)=O)c1,0.039%
16,Cc1ccc(Cn2ccc(NC(=O)C3C4CCC(C4)C3C(=O)O)n2)cc1 (stereo not shown),7.82%
17,CC(=O)Nc1nc2ccccc2n1Cc1ccc(Cl)cc1,-15.4%
18,COc1nn(CC(=O)N2N=C(C(F)F)CC2(O)C(F)F)cc1[N+](=O)[O-] (stereo not shown),-5.04%
19,O=c1c(Cl)c(O)c2cccc3c4ccccc4n1c23,20.5%
20,COc1cc(OC)cc(C(=O)Nc2ccc([N+](=O)[O-])cn2)c1,12.5%
21,COC(=O)c1cc(S(=O)(=O)NCCN2CCN(c3ccccc3F)CC2)c[nH]1,6.4%
22,COc1ccccc1NC(=O)Nc1ccnn1Cc1cccs1,-7.22%
23,N/C(=N\O)c1ccc(Oc2ccccc2Cl)c([N+](=O)[O-])c1,-9.72%
24,CCOC(=O)CCCNS(=O)(=O)c1c(C)ccc2nsnc12,-10.6%
25,N#Cc1c(Cl)nc(-c2cccnc2)nc1-c1ccccc1,21.7%
26,CCn1c2ccccc2c2cc(NC(=O)C(C)OC(=O)c3ccc(NC(=O)CC#N)cc3)ccc21 (stereo not shown),15.8%
27,CC(=O)Oc1cc2c(C(=O)NCCN3CCOCC3)c(C)oc2c2ccccc12,-24.7%
